Measurements from PMC10726135.
The list shows a part of the results. At the low end of the ranking, values are background and their order means little. Measured with an extract: partners may take part in the binding.

target: T1, HNF4alpha8 (COS-7 nuclear extract) (UniProt P41235-5); experiment: protein-binding microarray; settings: COS-7 nuclear extract on double-stranded Agilent 4x180k PBM; binding buffer, salt, pH and temperature not given; high values mean tight binding; double strand, one strand shown; sequences stand for … in …GCCTAGGGAGATTAGAGTATCGGTCGA
T1 sequence: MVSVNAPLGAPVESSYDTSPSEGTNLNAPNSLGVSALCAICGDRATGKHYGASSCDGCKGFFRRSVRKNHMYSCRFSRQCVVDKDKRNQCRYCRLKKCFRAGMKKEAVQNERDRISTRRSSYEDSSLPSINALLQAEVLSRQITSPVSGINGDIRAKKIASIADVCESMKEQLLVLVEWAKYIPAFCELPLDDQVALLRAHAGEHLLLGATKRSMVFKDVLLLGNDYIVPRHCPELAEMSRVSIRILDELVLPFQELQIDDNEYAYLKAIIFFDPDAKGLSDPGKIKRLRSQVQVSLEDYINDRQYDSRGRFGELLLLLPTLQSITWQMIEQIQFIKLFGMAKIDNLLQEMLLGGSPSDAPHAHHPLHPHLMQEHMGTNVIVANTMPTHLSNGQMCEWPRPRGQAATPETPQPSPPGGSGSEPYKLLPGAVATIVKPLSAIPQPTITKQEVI

Sequence | binding signal (log2 normalized intensity)
GGGCTCAAGCGATCCTCCCACTTCAGCCTC | -1.36
GGGCACTGATAACCTGCATTTGAAAGAGGT | -1.29
TCTCCAAACCCATATTCCTATCACCATATC | 0.0991
TCATACCTCTTACCAGATAGATGCTGCTCT | -1.46
TCCTACTTTATCTAAGTAAACTAGTGATGT | 1.17
AGGCAGGACATCAAAGAACAAGTATCCTGG | -1.19
TCTGTACAGCTCTTGTGCTCTGGACATACC | 0.639
TCTGTTTCTCTGTCTCTCTGCACACACAGA | -1.25
TAATATTTTTGACTTACCATTTGCTGATAA | -0.712
CTTCCCTCCACTATTGTCCTATGACCCTGC | 4.86
GCAGCTCAAGGGTGTTCCTGAGTAAATCTC | -1.27
TTTGCTGAAGACAGGCCAGGGTGATCAAAC | 0.843
AGGAATGTACATAATCTGGACCCAAACGAA | 2.95
TTGCCCCCCTGGGCTCAAGCGATCCTCCCA | 4.82
CAGCATAGTCCTGCCACATTTTTATCCTTT | 1.72
ACCTTTGACCTGGTACTATGACCTTTCACC | 7.83
GCTTTGATGTGTGTATCAATGGCCCCAGTG | 2.12
ACATTCGTTAACATCAGCTGAGCAGAGAGG | -1.38
AGGAACTTACGAAGATAAATCAGAAGAAAA | -1.27
CCATAAATACACAATCTGAAGTCCCCTGTG | 2.2
AACAGTCTGCACATTTATTGGACTAGGCAC | 1.45
ATATAAGCTATTACTTGATTTAATACGATA | -0.0423
TTTACGAAGTGTTTGTCAAGCTCAATGCAA | -1.23
ATAACCACCATTAGACTCTGCCCTCCTTAA | 3.3

Sequence | binding signal (log2 normalized intensity)
GCTCCCTCCCCTCCTCCCTTGCTCACCCCA | 5.89
CCAGAGTTCAGGTAGAGGGATTCCCTGGGA | -0.833
GTTTTGAGATAGGGTCTTGCTTTGTCACCC | 2
GGTCAAGGACTGTTCAGTCCCAGTATGTGC | -0.367
CCCCAAAAACTTGGACTCTATAGCCTATGC | 2.66
TAAGTACCCACTATAGATTGTGAGATAAGT | -0.806
CTGAAGACAGTCTCCAAGGTTATTATATTG | 1.49
AGGTCGCCGGGAAAACCCGGAGCGGAGCAT | -1.2
AGGCCCATCTTCTTATCTGAGGTTTGACTT | 0.989
GCAGACCCTATTGGGCTAGCCGCTCCTCCC | -1.24
CTGGCCCAGCCTGGCCTCTAGAGTGGTTGC | -0.874
AATGATGATGACTTTTGACCCCAGGGGAAA | 6.38
GAATCCTCTCTTGCTCAGGTGAGGCCAGTC | -0.894
AGAGCAGAATCTACAAGGACCAGATTCTTA | -1.29
TAGGGCCACTTTGTCCTTCACTTGTAGGAG | 0.768
TAGTATTGAGTTTGCTCTGCTACTAACTGC | -0.294
ACACAGAGATCTGATCAAAGGTCATTGGTA | 6.68
TTGTCAGTGAGGAATGTGCAAACGGCCCAG | -0.961
GAGCTGCTGGAACAGGCTGGGACACGCCTG | -1.34
ATGTGACCTTTTGGACCACAGAGTGACCTG | 5.66
CTGATAAATCCCGAGCCAGAGCCAAAGGGC | 0.829
TTCTTCTGGTTCTGCAAGGCAACTGACCTT | 4.13
CCTGATGACAACTGAATGTGACCTTTTGGA | 6.26
TCTGAGTAGGAAAGACTTGCTCATTGATGA | -1.27

Sequence | binding signal (log2 normalized intensity)
AGTTTGACTCCAAAGGGCTGGAGACTGAGT | -1.24
ATAAAGGAAGCTGGGCACAAATTGGAGAGC | -1.37
TGATCCAGGGCAAAGGTCATAATTTGATCC | 6.94
CCTCCCCTCCCCCCAGTTCCCTGGGTCGCC | 4.79
GTTAGCATAGCCTATCTGGTGCAGTCCAAG | 0.263
CTACATCAAGAGGATTACATAACCACCACT | -1.29
TGAAACTCCACTACATTAGCAGCGCCACCA | -1.35
CTTGACCTTTGATCCAGGCTCAGTGGGCGT | 5.72
ACTCTGAGGCTCCATCATGCCTGGCAGCCT | -1.26
AGGAATGCTGAGGAGGGCCTGGGGGACAGC | -1.29
TGAATCAATAAGCCAGTGAACCTTTGTCCC | 5.34
TTCATCAGATTAGAAGGCAGAGAAAGATAG | -1.26
TCCCTTCCCCCCTCCTCATTGAGAGTTTTA | 3.95
CTGCTTGATAGCCATCTGGTGGACTTTGCT | 6.09
CAGTGACAAATGTCAGACAAACAGACTTCA | -1.35
GGCCAGGATTAACCACAGAAATGCCGCTAA | -1.36
GAACGAATACTCAAGGGGAAGAAATCTAAG | -1.36
TGAGTGACCTTTCACCCGCGCCCAGCGGTT | 4.46
CCGGGAGCGCCGAGCACGTCGAGCAGGCCC | -1.17
GACACACATGAGCTAGTGCTAAAGGTCATA | 6.29
TAACCACATTCTTTCTGCATCGCAGTCGCC | -1.18
AGGCCTAACTGGCTTTGTCTGCTCAGGAAT | -1.25
AGGCCATCTGCTGGAGAATCCTCTCTTGCT | -1.25
TGGGTTGGAACCCCGTTTCTCCTACCTCAT | -0.639

Sequence | binding signal (log2 normalized intensity)
ATCTGACAGAGATAAGGAAGTTCCAACATC | -1.3
AAAGAGCAACTACTCTCTCTTCTGGAGGAG | -1.25
ATGAGCAAGGTGGGTTCAGAGACCCTAGAG | -1.37
CTAACCTTCGTCCTTGCCCCTGGCTGGGCC | 1.21
CTTATCTAGATAAGTTGGTTTACTTATGTC | 0.666
CAGCTCTGGGCCCCTCGGCCGCTCCCTCCC | 1.82
AAGCTTCACAAAGGGCTGAGGTTAAAGTCC | 7.44
GCAAAAATGCAGGCAATGAATAGAACAAAT | -1.37
TCAAAAACCCATGGGAAGCTTCACAAAGGG | -1.35
TTCAACTGGAGGATAAAGTTCAAGTAGATA | 2.68
GTGATAACGACATTCTTTGGATATGAAGGT | 1.11
TGCTTAGCGGCCTTCCCCTTTTTCTGTAAA | 1.03
AATTCTATGAGTAGGTACAAATTCCAAGGA | 2.31
ATGCGATACTTGACCTGCAATGAAAGTCCA | 3.34
CCAAATTCCTCCCACTCTGACATCCCCCTT | 4.41
ATGAATGTCACACACAGACTTGGGTTCAAA | 2.26
GGGAAACAGCGAGAGTCCTCTTGGTTTATG | -0.209
AGTCCAGGCAGGACATCAAAGAACAAGTAT | -0.928
ACTGCAGGGGGGTGGGCACCCCTGCCCCCA | 3.59
GTTAGCAACCGGAAGTGGCTAGAGGTCGCG | 1.17
AGTCCAGGGTAGGAGCCTCTGATTTGCTGA | -1.44
